What was measured:
Detroit562 cells = assay: In vitro cell proliferation test (CellTiter-Glo), Detroit562; format: cell-based, human; conditions: 6 days, CellTiter-Glo; read-out: IC50, inhibition of cell proliferation, Detroit562
Protocol: (§1) EMEM medium preparation: MEM medium (GE, CAT #SH30024.01), NEAA (sigma, CAT#M7145-100ML) and sodium pyruvate solution (sigma, CAT #S8636-100ML). […] Then the cells were resuspended by the addition of fresh medium. The cells were counted, and the cell suspension was formulated to the corresponding density (U87MG cells: 500 cells/well; […] 180 μL of cell suspension was added to a 96-well plate, and 200 μL of medium was added to the periphery of the 96-well plate. The plate was incubated for 24 hours in an incubator (37° C., 5% CO2). […] The samples were added to the plate, which was incubated for 6 days in the incubator (37° C., 5% CO2). 90 μl of CellTiter-Glo reagent was added to each well of the 96-well plate, and the plate was left to stand in the dark at room temperature for 10 minutes. The chemiluminescence signal value was read in Victor3, and the data was processed by GraphPad software.

Calu-6 cells = assay: In vitro cell proliferation test (CellTiter-Glo), Calu-6; format: cell-based; conditions: 6 days, CellTiter-Glo; read-out: IC50, inhibition of cell proliferation, Calu-6
Protocol: as §1

CHOK1 cells = assay: In vitro cell proliferation test (CellTiter-Glo), CHO-K1; format: cell-based; conditions: 6 days, CellTiter-Glo; CHO-K1 does not express human B7H3; read-out: IC50, inhibition of cell proliferation, CHOK1
Protocol: Then the cells were resuspended by the addition of fresh medium. The cells were counted, and the cell suspension was formulated to the corresponding density (U87MG cells: 500 cells/well; […] 180 μL of cell suspension was added to a 96-well plate, and 200 μL of medium was added to the periphery of the 96-well plate. The plate was incubated for 24 hours in an incubator (37° C., 5% CO2). […] The samples were added to the plate, which was incubated for 6 days in the incubator (37° C., 5% CO2). 90 μl of CellTiter-Glo reagent was added to each well of the 96-well plate, and the plate was left to stand in the dark at room temperature for 10 minutes. The chemiluminescence signal value was read in Victor3, and the data was processed by GraphPad software.

U87MG cells = assay: In vitro cell proliferation test (CellTiter-Glo), U87MG; format: cell-based, human; conditions: 6 days, read-out: IC50, inhibition of cell proliferation, U87
Protocol: (§2) In this experiment, the inhibition effect of B7H3-ADC on cell proliferation was evaluated based on IC50 by detecting the intracellular ATP content.
(§3) U87MG cells (human brain astroblastoma, Chinese Academy of Sciences cell bank, Catalog #TCHu138), Calu-6 cells (lung cancer cells, ATCC, Catalog #ATCC@ HTB-56™), Detroit562 cells (human pharyngeal carcinoma cells, ATCC, Catalog #ATCC@ CCL-138™) and A498 cells (kidney cancer cells, ATCC, Catalog #ATCC@ HTB-44™) were cultured in EMEM medium containing 10% FBS, and passaged 2 to 3 times a week with a passage ratio of 1:3 or 1:6. […]
(§4) For passage, the medium was removed and the cell layer was washed with 5 mL of 0.25% trypsin, then the trypsin was removed and the cells were digested for 3 to 5 minutes in an incubator. […] The cells were counted, and the cell suspension was formulated to the corresponding density (U87MG cells: 500 cells/well; A-498 cells: 500 cells/well; A-375 cells: 300 cells/well; Calu-6 cells: 800 cells/well; detroit562 cells: 2000 cells/well; and CHO-K1 cells: 500 cells/well). […]
(§5) The samples to be tested were diluted with PBS or DMSO at a 3-fold ratio to 9 concentrations (the initial concentration of each ADC was 500 nM). […] The chemiluminescence signal value was read in Victor3, and the data was processed by GraphPad software.

[1] = tested on: human pharyngeal carcinoma pleural fluid metastatic cell Detroit 562 xenograft tumor; assay: Efficacy on Detroit562 xenograft tumor in nude mice; format: in vivo, BALB/c nude mice; conditions: for Averange tumor volume (mm^3) Day 0: Day 0 (grouping); for Tumor inhibition rate (%) on Day 28: vs negative control
Description: BALB/c nude mice were used as the test animal to evaluate the efficacy of the ADC compound of the present disclosure on human pharyngeal carcinoma pleural fluid metastatic cell Detroit 562 xenograft tumor in nude mice.
2. Formulation Method: The Drugs were all Diluted and Formulated with PBS. 3. Test Animals
BALB/c nude mice (female, 6 to 7 weeks old) for test were inoculated subcutaneously with human pharyngeal carcinoma pleural fluid metastatic cell Detroit 562 cells. On Day 10 after the inoculation, the animals were randomly grouped with 8 animals per group (D0), and the drugs were administered by intraperitoneal injection once a week for 3 times. The tumor volume and body weight were measured 2 to 3 times a week, and the data were recorded. The calculation formula of tumor volume (V) is as follows: V=½×a×b^2 • wherein: • a and b represent length and width respectively.
Relative volume (RTV)=VT/V0
Tumor inhibition rate (%)=(CRTV−TRTV)/CRTV (%) • wherein V0 and VT represent the tumor volume at the beginning of the test and at the end of the test, respectively. CRTV and TRTV represent the relative tumor volume of the control group (negative control) and the test group at the end of the test, respectively. IV. Test Results

A498 cells = assay: In vitro cell proliferation test (CellTiter-Glo), A498; format: cell-based; conditions: 6 days, read-out: IC50, inhibition of cell proliferation, A498
Protocol: as §2, §3, §4, §5

A375 cells = assay: In vitro cell proliferation test (CellTiter-Glo), A-375; format: cell-based; conditions: 6 days, read-out: IC50, inhibition of cell proliferation, A375
Protocol: as §2
A-375 (melanoma cells, ATCC, Catalog #ATCC@ CRL-1619™) was cultured in DMEM (GE, SH30243.01) medium containing 10% FBS, and passaged 2 to 3 times a week with a passage ratio of 1:3 or 1:6.
For passage, the medium was removed and the cell layer was washed with 5 mL of 0.25% trypsin, then the trypsin was removed and the cells were digested for 3 to 5 minutes in an incubator. Then the cells were resuspended by the addition of fresh medium. The cells were counted, and the cell suspension was formulated to the corresponding density (U87MG cells: 500 cells/well; A-498 cells: 500 cells/well; A-375 cells: 300 cells/well; Calu-6 cells: 800 cells/well; detroit562 cells: 2000 cells/well; and CHO-K1 cells: 500 cells/well).
180 μL of cell suspension was added to a 96-well plate, and 200 μL of medium was added to the periphery of the 96-well plate. The plate was incubated for 24 hours in an incubator (37° C., 5% CO2).
as §5

[2] = 1 mpk i.p. once a week for 3 times
[3] = 3 mpk i.p. once a week for 3 times

B1: ADC-2: antibody 1702DS coupled with compound 5-A; exemplary product of formula FADC-2 (conjugate)
heavy: QVQLVQSGGGVVQPGTSLRLSCAASGFIFSSSAMHWVRQAPGKGLEWVAVISYDGSNKYYVDSVKGRFTISRDNSKNTLYLQMNSLRAEDTAVYYCARSARLYASFDYWGQGALVTVSS[human IgG1 constant region not listed]
light: DTVVTQEPSFSVSPGGTVTLTCGLSSGSVSTSHYPSWYQQTPGQAPRMLIYNTNTRSSGVPDRFSGSILGNKAALTITGAQADDESDYYCAIHVDRDIWVFGGGTKLTVLGQPKANPTVTLFPPSSEELQANKATLVCLISDFYPGAVTVAWKADGSPVKAGVETTKPSKQSNNKYAASSYLSLTPEQWKSHRSYSCQVTHEGSTVEKTVAPTEC
IC50 (Detroit562 cells): 31.6 nM
IC50 (Calu-6 cells): 70.6 nM
IC50 (CHOK1 cells): > 500 nM
IC50 (U87MG cells): 49.1 nM
Averange tumor volume (mm^3) Day 0 [1, 2]: 182.65 mm^3
Averange tumor volume (mm^3) Day 28 [1, 2]: 738.73 mm^3
Relative tumor volume Day 28 [1, 2]: 4.16
Tumor inhibition rate (%) on Day 28 [1, 2]: 44.26%
Averange tumor volume (mm^3) Day 0 [1, 3]: 182.59 mm^3
Averange tumor volume (mm^3) Day 28 [1, 3]: 381.48 mm^3
Relative tumor volume Day 28 [1, 3]: 2.07
Tumor inhibition rate (%) on Day 28 [1, 3]: 72.27%
IC50 (A498 cells): 419 nM
IC50 (A375 cells): 33.3 nM
